In test [1] the target is T1, Noc3-CC2Δ, two differently tagged copies (Noc3-CC2Δ-FLAG and Myc-Noc3-CC2Δ) (S. cerevisiae) (UniProt Q07896).
T1 sequence: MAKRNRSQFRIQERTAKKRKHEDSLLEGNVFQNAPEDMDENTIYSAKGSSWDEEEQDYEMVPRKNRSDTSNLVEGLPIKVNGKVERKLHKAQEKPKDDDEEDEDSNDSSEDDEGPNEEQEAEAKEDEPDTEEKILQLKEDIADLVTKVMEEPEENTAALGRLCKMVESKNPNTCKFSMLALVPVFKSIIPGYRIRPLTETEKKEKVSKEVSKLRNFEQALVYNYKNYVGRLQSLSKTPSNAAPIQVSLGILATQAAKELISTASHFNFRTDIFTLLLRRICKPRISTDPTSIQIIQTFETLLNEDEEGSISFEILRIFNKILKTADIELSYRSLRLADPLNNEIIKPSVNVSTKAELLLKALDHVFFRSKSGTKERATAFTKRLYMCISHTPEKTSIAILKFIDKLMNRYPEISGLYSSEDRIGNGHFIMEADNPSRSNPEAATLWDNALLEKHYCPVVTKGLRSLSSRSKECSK
As to the kind of experiment: co-IP; cycling (asynchronous) yeast cells; DNase I–digested extracts; IP with anti-FLAG, anti-Myc or the indicated antibodies, control mouse IgG.

Test [2] has as its target T2, Noc3-CC2Δ, yeast two-hybrid fusion (BD-Noc3-CC2Δ) (S. cerevisiae) (UniProt Q07896).
T2 sequence: T1 sequence
Nature of the test: two-hybrid; Matchmaker system III (Clontech); BD- and AD-fusion proteins; growth on SCM-Trp-Leu-His plates; empty BD or AD vector as negative controls.

Test [3] has as its target T3, Noc3p, full length, yeast two-hybrid fusion (BD-NOC3 and AD-Noc3p) (S. cerevisiae) (UniProt Q07896).
T3 sequence: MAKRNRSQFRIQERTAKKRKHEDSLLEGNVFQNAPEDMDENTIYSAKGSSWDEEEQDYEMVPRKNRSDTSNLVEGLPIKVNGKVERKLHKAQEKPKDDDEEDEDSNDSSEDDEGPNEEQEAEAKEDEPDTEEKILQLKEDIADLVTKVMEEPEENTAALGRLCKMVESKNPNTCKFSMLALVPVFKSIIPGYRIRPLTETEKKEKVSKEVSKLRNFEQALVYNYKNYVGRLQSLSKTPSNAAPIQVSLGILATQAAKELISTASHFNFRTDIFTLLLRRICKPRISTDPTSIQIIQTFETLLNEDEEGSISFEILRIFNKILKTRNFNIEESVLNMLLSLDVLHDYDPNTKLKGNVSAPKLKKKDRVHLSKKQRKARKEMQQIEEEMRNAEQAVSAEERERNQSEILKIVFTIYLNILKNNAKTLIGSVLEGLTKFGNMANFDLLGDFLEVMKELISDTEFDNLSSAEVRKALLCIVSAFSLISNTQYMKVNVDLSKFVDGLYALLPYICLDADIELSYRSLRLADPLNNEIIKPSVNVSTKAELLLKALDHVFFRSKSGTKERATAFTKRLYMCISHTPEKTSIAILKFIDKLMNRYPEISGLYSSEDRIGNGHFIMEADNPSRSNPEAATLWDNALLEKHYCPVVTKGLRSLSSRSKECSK
The test is described as above.

Test [4] deals with T4, Noc3-CC1Δ, yeast two-hybrid fusion (S. cerevisiae) (UniProt Q07896).
T4 sequence: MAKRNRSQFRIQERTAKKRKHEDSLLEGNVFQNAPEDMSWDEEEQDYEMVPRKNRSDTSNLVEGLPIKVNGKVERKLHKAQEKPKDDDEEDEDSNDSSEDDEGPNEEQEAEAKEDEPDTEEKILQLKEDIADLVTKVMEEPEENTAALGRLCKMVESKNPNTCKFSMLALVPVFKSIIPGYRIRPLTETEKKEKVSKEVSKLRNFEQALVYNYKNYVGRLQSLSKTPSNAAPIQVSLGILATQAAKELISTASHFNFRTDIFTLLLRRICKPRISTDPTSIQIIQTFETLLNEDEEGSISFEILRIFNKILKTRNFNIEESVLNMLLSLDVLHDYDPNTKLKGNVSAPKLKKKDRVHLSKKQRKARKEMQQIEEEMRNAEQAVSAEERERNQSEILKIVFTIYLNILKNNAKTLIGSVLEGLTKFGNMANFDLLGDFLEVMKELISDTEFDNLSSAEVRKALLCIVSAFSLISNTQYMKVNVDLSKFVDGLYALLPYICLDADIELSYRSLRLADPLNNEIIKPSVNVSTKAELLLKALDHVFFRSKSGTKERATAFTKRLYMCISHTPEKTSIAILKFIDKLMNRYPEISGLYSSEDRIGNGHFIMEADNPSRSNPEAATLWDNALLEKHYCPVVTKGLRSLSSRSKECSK
Described as above.

No constants are given. Whether binding was seen depends on the method and setting. For some assays here: In cells and extracts the contact can be indirect. Some binding calls cover weakened binding; strength is not graded here. Tags and fused reporters may be left off the sequences shown.

B1: Orc2p in yeast cell extract (protein, UniProt P32833 1-620)
chain: MLNGEDFVEHNDILSSPAKSRNVTPKRVDPHGERQLRRIHSSKKNLLERISLVGNERKNTSPDPALKPKTPSKAPRKRGRPRKIQEELTDRIKKDEKDTISSKKKRKLDKDTSGNVNEESKTSNNKQVMEKTGIKEKREREKIQVATTTYEDNVTPQTDDNFVSNSPEPPEPATPSKKSLTTNHDFTSPLKQIIMNNLKEYKDSTSPGKLTLSRNFTPTPVPKNKKLYQTSETKSASSFLDTFEGYFDQRKIVRTNAKSRHTMSMAPDVTREEFSLVSNFFNENFQKRPRQKLFEIQKKMFPQYWFELTQGFSLLFYGVGSKRNFLEEFAIDYLSPKIAYSQLAYENELQQNKPVNSIPCLILNGYNPSCNYRDVFKEITDLLVPAELTRSETKYWGNHVILQIQKMIDFYKNQPLDIKLILVVHNLDGPSIRKNTFQTMLSFLSVIRQIAIVASTDHIYAPLLWDNMKAQNYNFVFHDISNFEPSTVESTFQDVMKMGKSDTSSGAEGAKYVLQSLTVNSKKMYKLLIETQMQNMGNLSANTGPKRGTQRTGVELKLFNHLCAADFIASNEIALRSMLREFIEHKMANITKNNSGMEIIWVPYTYAELEKLLKTVLNTL
For B1, the binding result in test [1] is given as “binds”.

B2: Orc2p, yeast two-hybrid fusion (AD-Orc2p) (protein, UniProt P32833 1-620)
chain: B1 chain
For B2, the binding result in test [2] and in test [3] was “binds” each time.

B3: Noc3-F7 fragment, yeast two-hybrid fusion (domain or fragment, UniProt Q07896 326-512)
chain: NFNIEESVLNMLLSLDVLHDYDPNTKLKGNVSAPKLKKKDRVHLSKKQRKARKEMQQIEEEMRNAEQAVSAEERERNQSEILKIVFTIYLNILKNNAKTLIGSVLEGLTKFGNMANFDLLGDFLEVMKELISDTEFDNLSSAEVRKALLCIVSAFSLISNTQYMKVNVDLSKFVDGLYALLPYICLD
As to B3, in test [3], the binding entry is “binds”.

B4: Orc3p, endogenous, in yeast cell extract (protein, UniProt P54790 1-616)
chain: MSDLNQSKKMNVSEFADAQRSHYTVYPSLPQSNKNDKHIPFVKLLSGKESEVNVEKRWELYHQLHSHFHDQVDHIIDNIEADLKAEISDLLYSETTQKRRCFNTIFLLGSDSTTKIELKDESSRYNVLIELTPKESPNVRMMLRRSMYKLYSAADAEEHPTIKYEDINDEDGDFTEQNNDVSYDLSLVENFKRLFGKDLAMVFNFKDVDSINFNTLDNFIILLKSAFKYDHVKISLIFNINTNLSNIEKNLRQSTIRLLKRNYHKLDVSSNKGFKYGNQIFQSFLDTVDGKLNLSDRFVEFILSKMANNTNHNLQLLTKMLDYSLMSYFFQNAFSVFIDPVNVDFLNDDYLKILSRCPTFMFFVEGLIKQHAPADEILSLLTNKNRGLEEFFVEFLVRENPINGHAKFVARFLEEELNITNFNLIELYHNLLIGKLDSYLDRWSACKEYKDRLHFEPIDTIFQELFTLDNRSGLLTQSIFPSYKSNIEDNLLSWEQVLPSLDKENYDTLSGDLDKIMAPVLGQLFKLYREANMTINIYDFYIAFRETLPKEEILNFIRKDPSNTKLLELAETPDAFDKVALILFMQAIFAFENMGLIKFQSTKSYDLVEKCVWRGI
Take B4: in test [1], the binding result is “binds”.

B5: Orc3p, yeast two-hybrid fusion (AD-Orc3p) (protein, UniProt P54790 1-616)
chain: B4 chain
As for B5, the binding result in test [2] and in test [3] was “binds” in each case.

B6: Noc3-CC2Δ, two differently tagged copies (Noc3-CC2Δ-FLAG and Myc-Noc3-CC2Δ) (protein, UniProt Q07896)
chain: T1 sequence
In the case of B6, the binding entry in test [1] is recorded as “no binding”.

B7: Noc3p, full length, yeast two-hybrid fusion (BD-NOC3 and AD-Noc3p) (protein, UniProt Q07896 1-663)
chain: T3 sequence
For B7, the binding entry in test [4] is on record as “binds”; in test [2] it was “no binding”; in test [3], “binds”.

These data come from paper PMC9813392.
